Reference: a compilation of properties of binary mixtures (doi:10.1021/je800965t)
Some of these densities may be calculated back from excess volumes.

Assay: xn = mol fraction of the nth substance listed
Details: 101 kPa

O + CCCn1cc[n+](C)c1C.F[B-](F)(F)F
x1 = 1
Details | mass density [kg/m3]
303.15 K | 996
333.15 K | 983.2
343.15 K | 977.8

CCCn1cc[n+](C)c1C.F[B-](F)(F)F + O
mass density [kg/m3]
Details | x2 = 0 | x2 = 0.0939 | x2 = 0.1932 | x2 = 0.2833 | x2 = 0.3944 | x2 = 0.4987 | x2 = 0.5995 | x2 = 0.6985 | x2 = 0.8009 | x2 = 0.8988
298.15 K | 1225 | 1222 | – | 1214 | 1207 | 1200 | 1190 | 1176 | 1154 | 1113
303.15 K | 1222 | 1218 | – | 1210 | – | – | 1186 | 1172 | 1150 | 1110
308.15 K | 1219 | 1215 | 1211 | – | – | 1193 | – | 1168 | 1147 | 1107
313.15 K | 1217 | 1213 | 1209 | 1205 | 1198 | 1191 | 1180 | 1166 | 1145 | 1105
318.15 K | 1216 | – | – | 1203 | 1197 | 1189 | 1179 | 1165 | 1143 | 1103
323.15 K | 1215 | 1211 | 1207 | 1202 | 1196 | 1188 | 1178 | 1164 | 1142 | 1102
333.15 K | 1213 | – | 1204 | 1200 | 1193 | 1185 | – | – | 1138 | 1098
343.15 K | 1212 | – | 1203 | 1198 | 1191 | 1183 | 1172 | 1158 | 1134 | 1094
